# The other results are listed elsewhere or left out.
# What was measured:
# Experiment in all cases: glycan array binding signal (z-score within array); higher = stronger binding
# Conditions in all cases: glycan notation: IUPAC condensed, linker removed
# [1] = molecular target: Neu5Ac(a2-6)GlcNAc(b1-4)GlcNAc(b1-4)GlcNAc
# Method in brief: (§1)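 The binding signal is a Z-score computed within each array and averaged over linkers. Arrays of the same protein sequence at different concentrations or buffers were also averaged together. Data originate from 3228 arrays in the Consortium for Functional Glycomics database, kept only where the protein sequence was available.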
# Neu5Ac(a2-8)Neu5Ac = molecular target: Neu5Ac(a2-8)Neu5Ac
# Method in brief: as §1
# [2] = molecular target: Neu5Ac(a2-8)Neu5Ac(a2-3)Gal(b1-3)GalNAc(b1-4)[Neu5Ac(a2-3)]Gal(b1-4)Glc
# Method in brief: as §1
# [3] = molecular target: Neu5Ac(a2-8)Neu5Ac(a2-3)Gal(b1-3)GalNAc(b1-4)[Neu5Ac(a2-8)Neu5Ac(a2-3)]Gal(b1-4)Glc
# Method in brief: as §1
# [4] = molecular target: Neu5Ac(a2-8)Neu5Ac(a2-3)Gal(b1-4)Glc
# Method in brief: as §1
# [5] = molecular target: Neu5Ac(a2-8)Neu5Ac(a2-3)Gal(b1-4)GlcNAc
# Method in brief: as §1
# [6] = molecular target: Neu5Ac(a2-8)Neu5Ac(a2-3)[Gal(b1-3)GalNAc(b1-4)]Gal(b1-4)Glc
# Method in brief: as §1
# [7] = molecular target: Neu5Ac(a2-8)Neu5Ac(a2-3)[GalNAc(b1-4)]Gal(b1-4)Glc
# Method in brief: as §1
# [8] = molecular target: Neu5Ac(a2-8)Neu5Ac(a2-8)Neu5Ac
# Method in brief: as §1
# [9] = molecular target: Neu5Ac(a2-8)Neu5Ac(a2-8)Neu5Ac(a2-3)Gal(b1-4)Glc
# Method in brief: as §1
# [10] = molecular target: Neu5Ac(a2-8)Neu5Ac(a2-8)Neu5Ac(a2-3)[Gal(b1-3)GalNAc(b1-4)]Gal(b1-4)Glc
# Method in brief: as §1
# [11] = molecular target: Neu5Ac(a2-8)Neu5Ac(a2-8)Neu5Ac(a2-3)[GalNAc(b1-4)]Gal(b1-4)Glc
# Method in brief: as §1
# [12] = molecular target: Neu5Ac(a2-8)Neu5Ac(a2-8)Neu5Ac(a2-8)Neu5Ac(a2-3)[GalNAc(b1-4)]Gal(b1-4)Glc
# Method in brief: as §1
# [13] = molecular target: Neu5Ac(a2-8)Neu5Gc(a2-3)Gal(b1-4)GlcNAc
# Method in brief: as §1
# [14] = molecular target: Neu5Ac(b2-6)Gal(b1-4)GlcNAc
# Method in brief: as §1
# Neu5Ac(b2-6)GalNAc = molecular target: Neu5Ac(b2-6)GalNAc
# Method in brief: as §1
# [15] = molecular target: Neu5Ac9Ac(a2-3)Gal(b1-3)GlcNAc
# Method in brief: as §1
# [16] = molecular target: Neu5Ac9Ac(a2-3)Gal(b1-4)GlcNAc
# Method in brief: as §1
# [17] = molecular target: Neu5Ac9Ac(a2-6)Gal(b1-4)GlcNAc
# Method in brief: as §1
# [18] = molecular target: Neu5Gc(a2-3)Gal(b1-3)GlcNAc
# Method in brief: as §1
# [19] = molecular target: Neu5Gc(a2-3)Gal(b1-3)[Fuc(a1-4)]GlcNAc
# Method in brief: as §1
# Neu5Gc(a2-3)Gal(b1-4)Glc = molecular target: Neu5Gc(a2-3)Gal(b1-4)Glc
# Method in brief: as §1
# [20] = molecular target: Neu5Gc(a2-3)Gal(b1-4)GlcNAc
# Method in brief: as §1
# [21] = molecular target: Neu5Gc(a2-3)Gal(b1-4)GlcNAc(b1-3)Gal(b1-4)GlcNAc(b1-2)Man(a1-3)[Neu5Gc(a2-3)Gal(b1-4)GlcNAc(b1-3)Gal(b1-4)GlcNAc(b1-2)Man(a1-6)]Man(b1-4)GlcNAc(b1-4)GlcNAc
# Method in brief: as §1
# [22] = molecular target: Neu5Gc(a2-3)Gal(b1-4)[Fuc(a1-3)]GlcNAc
# Method in brief: as §1
# [23] = molecular target: Neu5Gc(a2-6)Gal(b1-4)GlcNAc
# Method in brief: as §1
# Neu5Gc(a2-6)GalNAc = molecular target: Neu5Gc(a2-6)GalNAc
# Method in brief: as §1
# [24] = molecular target: Neu5Gc(a2-8)Neu5Ac(a2-3)Gal(b1-4)GlcNAc
# Method in brief: as §1
# [25] = molecular target: Neu5Gc(a2-8)Neu5Gc(a2-3)Gal(b1-4)GlcNAc
# Method in brief: as §1
# [26] = molecular target: Neu5Gc(a2-8)Neu5Gc(a2-3)Gal(b1-4)GlcNAc(b1-3)Gal(b1-4)GlcNAc
# Method in brief: as §1
# [27] = molecular target: Neu5Gc(a2-8)Neu5Gc(a2-6)Gal(b1-4)GlcNAc
# Method in brief: as §1
# [28] = molecular target: Neu5Gc(b2-6)Gal(b1-4)GlcNAc
# Method in brief: as §1
binder,measurement,setting,value
APVPVTKLVCDGDTYKCTAYLDFGDGRWVAQWDTNVFHTG [PhoSpL (Pholiota squarrosa)],glycan array binding signal (z-score),[1],0.411
same,glycan array binding signal (z-score),Neu5Ac(a2-8)Neu5Ac,0.064
same,glycan array binding signal (z-score),[2],-0.079
same,glycan array binding signal (z-score),[3],-0.747
same,glycan array binding signal (z-score),[4],-0.197
same,glycan array binding signal (z-score),[5],0.356
same,glycan array binding signal (z-score),[6],-0.285
same,glycan array binding signal (z-score),[7],-0.373
same,glycan array binding signal (z-score),[8],-0.13
same,glycan array binding signal (z-score),[9],0.137
same,glycan array binding signal (z-score),[10],0.275
same,glycan array binding signal (z-score),[11],-0.502
same,glycan array binding signal (z-score),[12],-0.056
same,glycan array binding signal (z-score),[13],-0.733
same,glycan array binding signal (z-score),[14],-0.229
same,glycan array binding signal (z-score),Neu5Ac(b2-6)GalNAc,-0.334
same,glycan array binding signal (z-score),[15],-0.245
same,glycan array binding signal (z-score),[16],0.226
same,glycan array binding signal (z-score),[17],-0.099
same,glycan array binding signal (z-score),[18],-0.149
same,glycan array binding signal (z-score),[19],-0.19
same,glycan array binding signal (z-score),Neu5Gc(a2-3)Gal(b1-4)Glc,-0.255
same,glycan array binding signal (z-score),[20],-0.522
same,glycan array binding signal (z-score),[21],-0.036
same,glycan array binding signal (z-score),[22],-0.216
same,glycan array binding signal (z-score),[23],-0.269
same,glycan array binding signal (z-score),Neu5Gc(a2-6)GalNAc,-0.515
same,glycan array binding signal (z-score),[24],-0.39
same,glycan array binding signal (z-score),[25],-0.441
same,glycan array binding signal (z-score),[26],-0.492
same,glycan array binding signal (z-score),[27],-0.285
same,glycan array binding signal (z-score),[28],0.132

# — the supplement of paper PMC8728848
